PubChem BioAssay AID504466 (National Center for Advancing Translational Sciences (NCATS), 2011)
Screen size: about 330,000 compounds; about 4,200 (1.3%) were called active. The shares of active, inactive and inconclusive entries below differ from those in the screen. The call rests on the fitted dose curve; in most records, active means well fitted activation curve with a large enough effect; inconclusive means small, poorly fitted or top-dose-only effect; inactive means no such curve, though single readings can be large or run the other way. Where the call is inconclusive, the potency comes from a doubtful curve fit.

Test: qHTS screen for small molecules that induce genotoxicity in human embryonic kidney (HEK293T) cells expressing luciferase-tagged ELG1; further: nearly all actives have a fitted effect of over 60% in size
Conditions: HEK293T ELG1-luciferase reporter, luminescence, 16 h; series mostly up to 46 µM
Summary of the method: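 Screening used a luciferase reporter fused to human ELG1 in HEK293T cells. Luminescence was read on a CCD plate imager after 16 hr exposure and 30 min ONE-Glo incubation.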
Potency means the concentration at half of the fitted maximal effect; tags describe the fitted curve by direction and shape.

| SMILES | Potency |
| --- | --- |
| CSc1nnc(C2CCN(CC(=O)Nc3ccccc3N3CCOCC3)CC2)n1C(C)C | inactive |
| OCCN1CCN(CC(O)COc2ccc(-c3ccccc3)cc2)CC1 (configuration not stated) | inconclusive: 18.4 µM [activator, single point] |
| O=[N+]([O-])c1ccc(N/N=C/c2cn(-c3ccccc3)nc2-c2ccccc2)cc1 | inconclusive: 16.4 µM [activator, single point] |
| Cn1c(=NC(=O)c2ccco2)sc2ccccc21 | active: 4.11 µM |
| COc1ccccc1CN1CC(C(=O)NCc2c(F)ccc(C)c2F)CCC1=O (configuration not stated) | inconclusive: 18.3 µM [activator, partial curve, poor fit] |
| COc1ccc(-n2c(N)c(C(=O)NCc3ccco3)sc2=S)cc1 | inconclusive: 6.51 µM [activator, partial curve, poor fit] |
| CSc1cccc(NC(=O)c2[nH]c(C)c(C(C)=O)c2C)c1 | active: 23.1 µM |
| O=c1oc(-c2ccccc2)cc(Cl)c1Cl | inconclusive: 20.6 µM [activator, single point] |
| CCOc1ccc(S(=O)(=O)Nc2nc3ccccc3nc2Nc2ccc(N3CCOCC3)cc2)cc1 | inactive |
| Cc1ccc(C(=O)NNC(=O)/C=C\C(=O)O)cc1 | inconclusive: 23.1 µM [activator, partial curve, poor fit] |
| O=C(NCc1ccccc1)C(C(=O)c1ccc(F)cc1)n1ccccc1=O (configuration not stated) | inactive |
| COC(=O)/C=c1\[nH]c2nnc(C)n2c1=O | inactive |
| CC1CCN(S(=O)(=O)c2ccc(NC(=O)CN3CCN(c4ccccc4)CC3)cc2)CC1 | inconclusive: 18.4 µM [activator, single point] |
| S=C(Nc1cccc(Cl)c1)Nc1ccc2c(c1)OCCO2 | inconclusive: 4.11 µM [activator, partial curve, poor fit] |
| CC(=O)c1cnc2cc(-c3ccccc3)nn2c1C | active: 2.24 µM |
| COc1ccc(OC)c(Nc2nc(N)c([N+](=O)[O-])c(NCc3ccccc3)n2)c1 | inconclusive: 16.4 µM [activator, partial curve, poor fit] |
| Nc1nn(-c2cccc(F)n2)cc1-c1ccc(Cl)cc1 | active: 1.16 µM |
| CCCCNC(=O)c1ccc2c(c1)ncn2C1CCCC1 | inconclusive: 29.1 µM [activator, single point] |
| O=C(CCSc1ccccc1)N1CCOCC1 | active: 8.2 µM |
| Nc1nc2ccccc2n1/N=C/c1ccc([N+](=O)[O-])s1 | inactive |
| Cc1ccc(C(=O)NCc2cccc(C(F)(F)F)c2)cc1S(=O)(=O)N1CCCCC1 | inconclusive: 23.1 µM [activator, single point] |
| CN1CCCC1CCNc1ccc2c(=O)c3ccccc3oc2c1 (configuration not stated) | inconclusive: 14.6 µM [activator, partial curve] |
| COC(=O)c1c(C)[nH]c(C(=O)/C=C/c2ccc(Cl)cc2)c1C | inconclusive: 18.4 µM [activator, partial curve, poor fit] |
| O=C(Nc1cccnc1Cl)c1cc2ccccc2o1 | active: 9.2 µM |

| SMILES | Potency |
| --- | --- |
| Cc1cc2ccccc2n1CCNC(=O)Cc1cccc2ccccc12 | inconclusive: 29.1 µM [activator, single point] |
| O=C(c1ccc(C#Cc2ccccc2)o1)N1CCN(c2ccccn2)CC1 | inactive |
| CCc1c(C)c2ccc(OC3CCCCC3=O)cc2oc1=O (configuration not stated) | inconclusive: 20.6 µM [activator, single point] |
| CCOc1ccc2nc(SCC#N)c(C#N)cc2c1 | inconclusive: 3.66 µM [activator, full curve] |
| c1ccc2oc(SCc3cn4ccsc4n3)nc2c1 | inconclusive: 2.91 µM [activator, partial curve] |
| CSc1ccc(/C=C(/NC(=O)c2ccccc2)C(=O)NCCCn2ccnc2)cc1 | inactive |
| O=C(O)CSc1nc2sc3c(c2c(=O)n1Cc1ccccc1)CCCCC3 | inconclusive: 13 µM [activator, partial curve, poor fit] |
| CN(CC(=O)Nc1ccccc1C(F)(F)F)C(=O)c1ccc(-c2ccc(Cl)cc2)o1 | inactive |
| Cn1c(=O)[nH]c2nnc(-c3ccc(Cl)c(Cl)c3)nc2c1=O | inconclusive: 4.61 µM [activator, full curve] |
| Cc1cc(OCCN2CCN(S(=O)(=O)c3ccccc3F)CC2)ccc1C(C)C | inactive |
| Cc1cc(-c2n[nH]c(=S)n2/N=C/C(Cl)=C/c2ccccc2)n[nH]1 | inconclusive: 20.6 µM [activator, partial curve, poor fit] |
| O=C(NCC1CCCO1)/C(=C/c1ccc(Cl)cc1)NC(=O)c1ccccc1 (configuration not stated) | inconclusive: 29.1 µM [activator, single point] |
| CC(=O)c1ccc(NC(=O)C2=CC(c3ccco3)=NS(=O)(=O)N2C)cc1 | inactive |
| CCCN1CCC(=O)N(CCSc2ccccc2)CC1 | inconclusive: 7.3 µM [activator, partial curve] |
| CC1CCN(C(=O)CCc2nnc(-c3ccccc3)o2)CC1 | inconclusive: 20.6 µM [activator, partial curve] |
| O=c1[nH]ncc(N/N=C\c2cccs2)c1Cl | active: 20.6 µM |
| O=C(NC1CCCC1)c1cc(-c2ccccc2Cl)on1 | inconclusive: 2.31 µM [activator, full curve] |
| Cc1ccc(-c2noc(C3CCCN(C(=O)c4ccc(F)cc4F)C3)n2)cc1 (configuration not stated) | inconclusive: 23.1 µM [activator, single point] |
| Cc1ccc(-c2nnn(C/C(N)=N/O)n2)cc1 | inconclusive: 32.6 µM [activator, partial curve, poor fit] |
| Cc1cc(C(=O)N/N=C/c2ccncc2)c2ccccc2n1 | inactive |
| C/C(=N\NC(=O)c1ccc(N(C)C)cc1)c1cccnc1 | inconclusive: 16.4 µM [activator, partial curve, poor fit] |
| Cc1cccc(NC(=O)CCn2ccnc2C)c1 | inconclusive: 20.6 µM [activator, partial curve, poor fit] |
| CCN(CC)c1ccc(/C=N/Nc2nc3ccccc3[nH]2)c(O)c1 | inconclusive: 18.4 µM [activator, single point] |
| O=C(c1cc(-c2cccc(Cl)c2)on1)N1CCCCCC1 | active: 20.6 µM |

| SMILES | Potency |
| --- | --- |
| Cn1cc(Cl)c(C(=O)N/N=C/c2ccc3c4c(cccc24)CC3)n1 | inconclusive: 7.3 µM [activator, partial curve] |
| O=C(CN1C(=O)NC2(CCCC2)C1=O)N1CCN(S(=O)(=O)c2ccc(Cl)c(C(F)(F)F)c2)CC1 | inactive |
| C/C(=C\c1ccccc1)C(=O)Nc1ccc(Cl)cn1 | active: 9.2 µM |
| O=C(OCC(=O)N1CCN(C(=O)c2ccco2)CC1)c1ccccc1Cc1ccccc1 | inconclusive: 18.4 µM [activator, single point] |
| COc1cccc2cc(C(=O)N3CCN(c4ccccn4)CC3)c(=O)oc12 | inactive |
| Cc1ccc2c(c1)C(=NC1CCCCC1)c1cc3ccccc3nc1-2 | inconclusive: 2.91 µM [activator, partial curve] |
| CC(C)N(C(=O)CSc1ncnc2sc(-c3ccccc3)cc12)C(C)C | inconclusive: 8.2 µM [activator, partial curve] |
| Cc1nc(NC(=O)C2CC3CCCC(C2)C3=O)sc1C (configuration not stated) | inconclusive: 16.4 µM [activator, partial curve] |
| O=C(CSc1nnc(NC(=O)c2ccc3c(c2)OCO3)s1)NCc1ccco1 | inconclusive: 0.82 µM [activator, full curve] |
| Cc1ccc2nc(-c3ccc(NC(=O)CN(c4ccccc4C)S(C)(=O)=O)cc3)sc2c1 | inconclusive: 2.91 µM [activator, partial curve, poor fit] |
| O=c1[nH]ncc(N/N=C\c2ccc(O)cc2O)c1Cl | inconclusive: 32.6 µM [activator, partial curve, poor fit] |
| CCOc1ccc(C2C(C(=O)c3cccs3)=C(O)C(=O)N2CCN2CCOCC2)cc1 (configuration not stated) | inactive |
| Cc1ccc2cc(NC(=O)c3ccc(C(C)(C)C)cc3)ccc2n1 | inactive |
| CCN(CCn1cccn1)C(=O)c1cc(COc2ccc(F)c(F)c2)on1 | inactive |
| O=C(Nc1cc2ccccc2oc1=O)c1ccccc1 | inconclusive: 0.259 µM [activator, full curve] |
| Cc1cccc(CCNc2nc3ccc(C)cc3n3cnnc23)c1 | inconclusive: 18.3 µM [activator, partial curve] |
| O=C(NCCC1=CCCCC1)c1cc(S(=O)(=O)N2CCCCC2)ccc1Cl | inconclusive: 23.1 µM [activator, partial curve, poor fit] |
| Cn1c(=O)[nH]c(=O)c2c1nc(N1CCCCC1)n2C/C=N/Nc1ccc(C(=O)O)cc1 | inconclusive: 32.6 µM [activator, partial curve, poor fit] |
| O=C(CSc1ccc(-c2ccccc2)nn1)c1cccs1 | inconclusive: 20.6 µM [activator, single point] |
| CC(=O)Nc1ccc(S(=O)(=O)Nn2cnnc2)cc1 | inactive |
| COc1ccc(Nc2nc(N)nc(CSc3nncn3C)n2)cc1 | active: 20.6 µM |
| COc1ccccc1OCCSc1nc(N)cc(N)n1 | inactive |
| Cc1cccc(-c2nc(CSCC(=O)N3CCN(Cc4ccc5c(c4)OCO5)CC3)c(C)o2)c1 | inconclusive: 8.2 µM [activator, partial curve] |
| COc1ccc2c(c1)Cc1sc(NC(=O)c3cccs3)nc1-2 | inconclusive: 2.91 µM [activator, partial curve] |
